Experimental data from paper PMC4336329 (PLoS ONE, 2015).
About 2,200 (0.71%) of roughly 310,000 compounds showed an effect of 50% or more. The effect is printed as a negative number. Some of the results follow.

Molecular target: human ether-à-go-go-related gene (hERG) potassium channel (human, UniProt Q12809)
Assay: primary screen, population patch clamp on CHO cells stably expressing hERG

Sequence of human ether-à-go-go-related gene (hERG) potassium channel (Q12809 whole entry, looked up): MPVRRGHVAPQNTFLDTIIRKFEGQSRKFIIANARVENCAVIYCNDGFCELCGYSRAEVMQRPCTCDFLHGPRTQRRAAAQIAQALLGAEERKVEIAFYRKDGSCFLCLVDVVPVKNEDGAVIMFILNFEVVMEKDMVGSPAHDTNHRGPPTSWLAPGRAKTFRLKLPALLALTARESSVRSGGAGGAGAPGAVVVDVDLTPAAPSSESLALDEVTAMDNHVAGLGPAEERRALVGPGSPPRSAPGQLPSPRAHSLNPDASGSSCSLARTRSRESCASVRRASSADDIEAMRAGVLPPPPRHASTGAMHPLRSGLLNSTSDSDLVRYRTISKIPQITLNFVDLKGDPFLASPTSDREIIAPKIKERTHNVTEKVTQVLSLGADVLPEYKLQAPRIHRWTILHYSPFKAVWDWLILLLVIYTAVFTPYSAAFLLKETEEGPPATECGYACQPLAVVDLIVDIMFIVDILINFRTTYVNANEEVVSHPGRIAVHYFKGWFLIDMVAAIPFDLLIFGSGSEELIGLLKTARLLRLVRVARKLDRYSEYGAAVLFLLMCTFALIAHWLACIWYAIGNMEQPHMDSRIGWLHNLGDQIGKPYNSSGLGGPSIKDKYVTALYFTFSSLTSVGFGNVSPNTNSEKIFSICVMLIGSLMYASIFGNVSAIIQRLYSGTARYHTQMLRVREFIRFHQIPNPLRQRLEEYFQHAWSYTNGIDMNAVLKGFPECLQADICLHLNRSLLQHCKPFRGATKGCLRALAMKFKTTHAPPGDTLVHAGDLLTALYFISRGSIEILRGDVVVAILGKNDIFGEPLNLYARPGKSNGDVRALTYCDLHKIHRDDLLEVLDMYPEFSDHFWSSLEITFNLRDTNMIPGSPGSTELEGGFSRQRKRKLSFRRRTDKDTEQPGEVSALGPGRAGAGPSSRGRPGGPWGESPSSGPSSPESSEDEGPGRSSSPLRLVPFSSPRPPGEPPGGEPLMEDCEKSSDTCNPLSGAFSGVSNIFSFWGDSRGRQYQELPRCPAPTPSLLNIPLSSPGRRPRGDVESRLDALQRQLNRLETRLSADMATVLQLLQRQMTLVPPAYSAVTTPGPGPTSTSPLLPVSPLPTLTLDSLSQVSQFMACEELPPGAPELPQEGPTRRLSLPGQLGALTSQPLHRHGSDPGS

First: COc1ccc(CC(=O)NNC(=O)CN(C)S(=O)(=O)c2ccc(Cl)cc2)cc1OC
Second: COc1ccc(NC(=S)Nc2ccc(S(N)(=O)=O)cc2)c(OC)c1
The “hERG current change (%, negative = inhibition) at 1uM” value of the first is lower: 6.69% for the first, 10.3% for the second.

Going from `CCN(CC(=O)Nc1ccc(C#N)c(Cl)c1)CC(=O)NC(C)(C)C` to `CCCn1c(SCC(=O)Nc2ccc(NC(=O)CC)cc2)nc2c1c(=O)n(C)c(=O)n2C`, the “hERG current change (%, negative = inhibition) at 1uM” value rises from 3.53% to 15.8%.

Compared with `CC(OC(=O)c1nn(C)c(=O)c2ccccc12)C(=O)NCc1ccc2c(c1)OCO2` (stereo not drawn), `Cc1cc(C)nc(NC(=O)c2cc(-c3ccc4c(c3)OCO4)nc3ccccc23)c1` is higher in “hERG current change (%, negative = inhibition) at 1uM” value: 5.72% for the first, 9.32% for the second.

Going from `Cc1onc(-c2ccccc2)c1C(=O)n1cccn1` to `CCN(C(=O)c1ccnn1C)c1ccccc1`, the “hERG current change (%, negative = inhibition) at 1uM” value falls from 15.2% to 2.86%.

First: CCOc1ccc2nc(NC(=O)C3CCN(c4cnccn4)CC3)sc2c1
Second: COc1ccc(N2CCN(C(=O)COc3ccc4c(C)cc(=O)oc4c3)CC2)cc1
The “hERG current change (%, negative = inhibition) at 1uM” value of the first is lower: 3.28% for the first, 9.09% for the second.

Going from `CCOC(=O)c1c(-c2ccccc2)oc2ccc(O)c(CN3CCOCC3)c12` to `Cc1ccc(OCC(=O)NCCN2CCOCC2)cc1C`, the “hERG current change (%, negative = inhibition) at 1uM” value rises from -9.83% to 7.39%.

Going from `COc1ccccc1C(=O)Nc1nnc(-c2ccc(F)cc2)o1` to `O=C(Nc1ccc(Cl)cc1)C1=Cc2ccccc2OC1`, the “hERG current change (%, negative = inhibition) at 1uM” value falls from 7.76% to 1.81%.

First: CCOC(=O)CNC(=O)CSc1nnc(-c2ccccc2)n1Cc1ccco1
Second: CC(C)N(C(=O)CSc1nnc(-c2cc3ccccc3cc2O)n1Cc1ccco1)C(C)C
The “hERG current change (%, negative = inhibition) at 1uM” value of the first is higher: 10.1% for the first, -17.3% for the second.

First: O=C(OCc1ccccc1)c1cnc(Cl)c(Cl)c1
Second: NS(=O)(=O)c1cc(C(=O)NCCc2ccccn2)ccc1Cl
The “hERG current change (%, negative = inhibition) at 1uM” value of the first is higher: 1.87% for the first, -5.96% for the second.

Going from `CC1CC(C)CN(C(=O)c2cccc(N3C(=O)c4ccccc4C3=O)c2)C1` (stereo not drawn) to `O=C1c2ccccc2C(=O)N1Cc1ccccn1`, the “hERG current change (%, negative = inhibition) at 1uM” value rises from 8.8% to 13.2%.

Compared with `O=C(NC1=NCCS1)c1ccc(OCC2CCCO2)cc1` (stereo not drawn), `O=C(NCC1CCCO1)c1ccc(-c2cccc(C(F)(F)F)c2)o1` (stereo not drawn) is lower in “hERG current change (%, negative = inhibition) at 1uM” value: 6.55% for the first, 5.2% for the second.

First: CC(C)C(O)C1CCN(Cc2nc(-c3cccs3)no2)CC1 (stereo not drawn)
Second: Clc1cccc(CN2CCN(Cc3nc(CCc4ccccc4)no3)CC2)c1
The “hERG current change (%, negative = inhibition) at 1uM” value of the first is lower: -4.64% for the first, 2.03% for the second.

Compared with `CC1CCCCN1C(=O)C1CCN(S(=O)(=O)c2ccc(-n3cnnn3)cc2)CC1` (stereo not drawn), `CC(=O)c1ccc(S(=O)(=O)N2CCC3(CC2)OCCO3)cc1` is higher in “hERG current change (%, negative = inhibition) at 1uM” value: -15.5% for the first, 11.4% for the second.

Going from `CC1CC(C(F)F)n2nc(C(=O)Nc3sc4c(c3C#N)CCC(C(C)(C)C)C4)nc2N1` (stereo not drawn) to `Cc1ccc(OCC(=O)Nc2sc3c(c2C#N)CC(C)(C)NC3(C)C)cc1`, the “hERG current change (%, negative = inhibition) at 1uM” value falls from 13.1% to 0.683%.

Compared with `NC(=O)CC(NC(=O)c1ccccc1)c1ccc(N2CCC(Cc3ccccc3)CC2)c([N+](=O)[O-])c1` (stereo not drawn), `N#Cc1ccccc1OCCCN1CCC(Cc2ccccc2)CC1.O=C(O)C(=O)O` is lower in “hERG current change (%, negative = inhibition) at 1uM” value: 7.73% for the first, -83% for the second.

Going from `N#Cc1ccc(OCc2cccc(S(=O)(=O)N3CCOCC3)c2)cc1` to `CCOc1ccc(S(=O)(=O)NCc2cccs2)cc1`, the “hERG current change (%, negative = inhibition) at 1uM” value rises from -57.3% to -4.12%.

Compared with `Cn1cc(CNC(=O)C2CCCCC2)cn1`, `O=C(NC1CCCCC1)C1CCN(C(=O)NCc2ccccc2)CC1` is higher in “hERG current change (%, negative = inhibition) at 1uM” value: -8.5% for the first, 3.7% for the second.

Going from `Cc1ccc(CNC(=O)CSc2nnc(CNC(=O)c3ccccc3)o2)cc1` to `COc1ccc(C(=O)NCc2nnc(SCC(=O)Nc3cc(OC)ccc3OC)o2)cc1`, the “hERG current change (%, negative = inhibition) at 1uM” value falls from 13.4% to 1.8%.

Compared with `O=C(CCc1nc2ccccc2[nH]c1=O)OCC(=O)N1CCc2ccccc21`, `CCn1c(SCc2nc3ccccc3[nH]2)nnc1-c1ccccc1OC` is lower in “hERG current change (%, negative = inhibition) at 1uM” value: 8.03% for the first, -0.918% for the second.

First: Cc1[nH]n(-c2ccc(Cl)cc2)c(=O)c1C=NC12CN3CN(CN(C3)C1)C2
Second: Cc1ccc2c(c1)C(=O)CCCCC(=O)N2
The “hERG current change (%, negative = inhibition) at 1uM” value of the first is lower: 10.9% for the first, 13.8% for the second.

Compared with `CC(=O)c1ccc(S(=O)(=O)N2CCN(C(=O)c3ccc(N)c([N+](=O)[O-])c3)CC2)cc1`, `Cc1cccc(N2CCN(C(=O)CCS(=O)(=O)c3ccc4c(c3)NC(=O)CO4)CC2)c1C` is higher in “hERG current change (%, negative = inhibition) at 1uM” value: 3.67% for the first, 12.5% for the second.

Going from `Cc1c(-c2ccccc2)n[nH]c1C(=O)N=Nc1c(O)[nH]c2ccccc12` to `Cc1nn(-c2ccccc2)c(NC(=O)C(C)C)c(-c2ccccc2)c1=O`, the “hERG current change (%, negative = inhibition) at 1uM” value rises from 2.33% to 12.8%.

Compared with `CC(NC(=O)NC1CCCCC1)C(c1cccs1)N1CCN(C)CC1` (stereo not drawn), `COc1ccc(C(=O)N(CCCO)C(C)C(=O)NC2CCCCC2)cc1OC` (stereo not drawn) is lower in “hERG current change (%, negative = inhibition) at 1uM” value: 6.52% for the first, 4.45% for the second.

Going from `CCOC(=O)c1c(NC2OC(=O)c3c2ccc(OC)c3OC)sc(C(=O)OC(C)(C)C)c1C` (stereo not drawn) to `CCOC(=O)c1ccccc1NC(=O)CSc1ncc(C(=O)OCC)c(N)n1`, the “hERG current change (%, negative = inhibition) at 1uM” value rises from 5.82% to 14.9%.

Going from `CC(C)c1ccc2c(c1)C(c1cccs1)=NNC(c1ccncc1)=N2` to `O=C(Cc1ccc(Cl)cc1Cl)Nc1ccncc1`, the “hERG current change (%, negative = inhibition) at 1uM” value falls from 12.3% to 1.24%.

Compared with `CCN(CC)S(=O)(=O)c1ccc(N2CCN(C)CC2)c(NC(=O)COc2ccc(F)cc2Cl)c1`, `CCOc1ccc(S(=O)(=O)N2CCN(c3ccccc3F)CC2)c2cccnc12` is higher in “hERG current change (%, negative = inhibition) at 1uM” value: -2.91% for the first, 4.02% for the second.

Going from `CCN(CC)CCC/C(=N\O)C(O)(c1ccccc1)c1ccccc1` to `CCN(CC)CC.COc1ccccc1-n1c(=S)[nH]c2c(sc(=S)n2-c2ccccc2)c1=O`, the “hERG current change (%, negative = inhibition) at 1uM” value falls from 10.9% to -1.99%.

First: O=C(CSc1ccc(Cl)cc1)Nc1nnc(-c2cccc([N+](=O)[O-])c2)s1
Second: O=C(COC(=O)c1n[nH]c2ccccc12)Nc1ccc(Cl)cc1[N+](=O)[O-]
The “hERG current change (%, negative = inhibition) at 1uM” value of the first is lower: 13.3% for the first, 15.9% for the second.

Compared with `COc1cc2[nH]c3c(OC)ncnc3c2cc1OC`, `COc1ccc(CCn2c(N)c(C(=O)NCc3ccco3)c3nc4ccccc4nc32)cc1OC` is higher in “hERG current change (%, negative = inhibition) at 1uM” value: 5.47% for the first, 16.3% for the second.

Compared with `CCOC(Cn1ccc(=O)[nH]c1=O)OCC`, `CCOC(=O)C1C(=O)NC(SCC(=O)Nc2nccs2)=C(C#N)C1c1ccccc1OCC` (stereo not drawn) is higher in “hERG current change (%, negative = inhibition) at 1uM” value: 7.3% for the first, 16.8% for the second.

Compared with `CCS(=O)(=O)Nc1cc(C(=O)OC)ccc1C(=O)OC`, `Cc1ccc(C(=O)NNC(=S)NC(=O)c2ccc(Cl)cc2Cl)cc1` is lower in “hERG current change (%, negative = inhibition) at 1uM” value: 7.43% for the first, 4.12% for the second.

First: Cc1cccc(C)c1C(=NCCCN(C)C)c1ccccc1.Cl
Second: CN(C)CCC(c1ccccc1)c1ccccn1.O=C(O)/C=C/C(=O)O (stereo not drawn)
The “hERG current change (%, negative = inhibition) at 1uM” value of the first is lower: 6.28% for the first, 11.7% for the second.

Going from `O=C(Cn1ncc2c3ccccc3n(Cc3ccccc3)c2c1=O)NCCCN1CCCC1` to `Cc1nc(N2CCN(c3ccccc3)CC2)[nH]c(=O)c1Cc1cccc2ccccc12`, the “hERG current change (%, negative = inhibition) at 1uM” value rises from -29.5% to 13%.

Going from `COc1ccc(OCC(=O)OCC(=O)Nc2ccc3[nH]c(=O)[nH]c3c2)cc1` to `COc1ccc(NC(=O)N2CCCC2C(=O)Nc2ccccc2)cc1` (stereo not drawn), the “hERG current change (%, negative = inhibition) at 1uM” value rises from 7.93% to 13.9%.

First: CCCCC(=O)NC1=C(C(=O)OC)SCC1
Second: CC1(C)Cc2nc3sc(C(=O)NCCCO)c(N)c3cc2CO1
The “hERG current change (%, negative = inhibition) at 1uM” value of the first is higher: 17.4% for the first, 10.2% for the second.

Going from `O=C(NCc1ccccn1)c1cccc(S(=O)(=O)NCc2ccccc2)c1` to `O=C(/C=C/c1ccc(S(=O)(=O)NCc2ccco2)cc1)NCc1cccc(Cl)c1`, the “hERG current change (%, negative = inhibition) at 1uM” value rises from 5.15% to 8.28%.

Going from `COc1cccc(SCc2noc(C(=O)NCCCN3CCOCC3)c2C(=O)NCCCN2CCOCC2)c1` to `Cc1ccn2c(CNCCCn3cccn3)c(C(=O)N3CCCCCC3)nc2c1`, the “hERG current change (%, negative = inhibition) at 1uM” value falls from 7.12% to 5.76%.

First: CC(C)(C)C(=O)Nc1nc2cc3c(cc2s1)OCO3
Second: CN(C)c1nc(OCCOC(=O)Nc2ccc(Cl)cc2Cl)nc(N(C)C)n1
The “hERG current change (%, negative = inhibition) at 1uM” value of the first is higher: 13.5% for the first, -1.9% for the second.

Going from `N#C/C(=C/c1ccc(OCc2ccc(C(=O)O)cc2)cc1)C(=O)Nc1ccccc1` to `CC(C)C(NC(=O)c1ccccc1F)C(=O)NCc1ccccc1` (stereo not drawn), the “hERG current change (%, negative = inhibition) at 1uM” value falls from 12.4% to 3.33%.

First: CC(C(=O)NC1CCCCC1)N(Cc1ccc(F)cc1)C(=O)c1snc(C(N)=O)c1N (stereo not drawn)
Second: CN(C)C=O.Cn1nnnc1SCC(=O)NNC(=O)c1ccc(F)cc1
The “hERG current change (%, negative = inhibition) at 1uM” value of the first is higher: 9.81% for the first, 5.78% for the second.

Going from `N/N=C1\CCCc2nonc21` to `Cn1c(=O)c2c(nc(SCC(=O)N3CCOCC3)n2C)n(C)c1=O`, the “hERG current change (%, negative = inhibition) at 1uM” value rises from 7.12% to 16.1%.

First: Cc1cnc(=O)[nH]c1SCc1cccc(C(F)(F)F)c1
Second: Cc1nc(N)sc1-c1csc(Nc2ccc(S(N)(=O)=O)cc2)n1
The “hERG current change (%, negative = inhibition) at 1uM” value of the first is higher: 13.6% for the first, 11.5% for the second.

Compared with `O=C1C(NS(=O)(=O)c2ccccc2)=C(N2CCN(c3ccc(F)cc3)CC2)C(=O)c2ccccc21`, `CC(C)C1Oc2ccccc2N(CC(=O)NCCCN2C(C)CCCC2C)C1=O` (stereo not drawn) is lower in “hERG current change (%, negative = inhibition) at 1uM” value: 12.1% for the first, 0.219% for the second.

`CC(C)(C)C1CCC(C(=O)OCC(=O)c2ccc[nH]2)CC1` (stereo not drawn) was tested, and the “hERG current change (%, negative = inhibition) at 1uM” value was 10.2%.
